# Assay results as given in ChEMBL document CHEMBL1201862, “PubChem BioAssay data set” (2004).
#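 Assay format: 96-well plates, 48-hour exposure. At the GI50, growth is halved.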 The source made the active and inactive calls. Rule as the data show it: active = GI50 up to about 1.1 µM and inactive = higher.
# Test system: NCI-H322M
# Assay: DTP human tumour cell line panel, 48 h
row,Compound,GI50
1,O=C(O)c1cc(C(=O)O)nc(C(=O)O)c1,inactive: > 100 µM
2,CC(C)(C)c1cc(Br)c(O)c(CN(Cc2cc(C(C)(C)C)cc(Br)c2O)C2CCCCC2)c1,inactive: 16.8 µM
3,O=C(Oc1cccnc1)c1cc2cc(CCl)ccc2oc1=O,inactive: > 100 µM
4,N=c1oc2c(O)c(O)ccc2cc1C(N)=O,inactive: 47.8 µM
5,O=C(O)CCC(=O)c1ccc2sc3ccccc3c2c1,inactive: > 100 µM
6,COc1cc(/C=C2\CCc3cc(OC)c(OC)cc3C2=O)cc(OC)c1,inactive: 15.5 µM
7,CCCCc1ccc(Nc2nc(S)c3[nH]cnc3n2)cc1,inactive: 22 µM
8,COc1ccc2cc(-c3ccc(OC)c(OC)c3)c(=O)oc2c1,inactive: > 100 µM
9,NC(CCc1nc(-c2ccc(Cl)cc2)cs1)C(=O)O (stereo not given),inactive: > 100 µM
10,CC(C)[C@@H]1C=C(c2ccccc2)c2ccccc2C1C(C#N)(C#N)C(C)C (stereo not given in full),inactive: > 100 µM
11,O=c1[nH]c2cccc([N+](=O)[O-])c2c(=O)n1-c1ccc(Cl)cc1,inactive: 12.6 µM
12,O=C(CN(c1ccccc1)c1ccccc1)N1c2ccccc2C2C=CC=CC21 (stereo not given),inactive: 27 µM
13,O=C(O)/C(O)=C\C(=O)c1ccc(Br)cc1,inactive: > 100 µM
14,CCOC(=O)Cc1nc2c(O)ncnc2n1C1OC(COC(C)=O)C(OC(C)=O)C1OC(C)=O (stereo not given),inactive: > 100 µM
15,NC(=S)N/N=C1\CCCCc2ccccc21,inactive: > 10 µM
16,O=C(NCc1ccccc1)c1cc2ccccc2o/c1=N\c1cccc(C(F)(F)F)c1,inactive: > 100 µM
17,O=C(c1ccccc1)c1nnc(C(=O)c2ccccc2)nn1,inactive: > 344 µM
18,COc1cc(C2[C@H]3C(=O)N(c4ccc(Cc5ccc(N6C(=O)[C@@H]7ON(c8ccccc8)C(c8cc(OC)c(OC)c(OC)c8)[C@@H]7C6=O)cc5)cc4)C(=O)[C@H]3ON2c2ccccc2)cc(OC)c1OC (stereo not given in full),inactive: > 100 µM
19,CNC(=O)CN(CC(=O)O)C(=O)NC,inactive: > 100 µM
20,S=C(N/N=C/c1ccco1)NC12CC3CC(CC(C3)C1)C2,inactive: > 100 µM
21,CCN(CC)CCO[Si](OCCN(CC)CC)(OCCN(CC)CC)OCCN(CC)CC,inactive: > 100 µM
22,O=C(/C=C/c1c(O)ccc2ccccc12)c1ccccc1Cl,inactive: 26.4 µM
23,O=C(N/N=C\c1cccc2c([N+](=O)[O-])cccc12)Nc1ccccc1,inactive: 11.9 µM
24,CC[C@@H]1CC[C@@H]2[C@H](CC[C@]3(C)[C@@H](O)CC[C@@H]23)[C@H]1C(=O)O,inactive: > 100 µM

row,Compound,GI50
1,CN(C)c1ccc(/C=C2\C[C@H]3[C@@H]4CC=C5C[C@@H](O)CC[C@]5(C)[C@H]4CC[C@]3(C)C2=O)cc1,inactive: 18.5 µM
2,CCCCNC(=S)Nc1nc(C(=O)NNC(=O)c2ccccc2)cs1,inactive: 12 µM
3,O=NC1C(Cl)C2CC1C1C(Br)C(Br)CC21 (stereo not given),inactive: > 100 µM
4,CCc1c(OC(C)=O)c2c(NC3OC(COC(C)=O)C(OC(C)=O)C(OC(C)=O)C3OC(C)=O)nc(SC)nc2oc1=O (stereo not given),inactive: > 100 µM
5,COc1ccc(C(=O)/C=C/c2cc(O)c(O)c(F)c2F)c(OC)c1,inactive: 26.4 µM
6,COc1cc2cc3c4cc(OC)c(OC)cc4cc[n+]3cc2cc1OC,inactive: > 100 µM
7,CCOC(=O)CCC(NC(=O)C(N)Cc1ccc(N(CCCl)CCCl)cc1)C(=O)OCC (stereo not given),inactive: 7.76 µM
8,COc1cccc(NC(=O)CC(=O)Nc2cccc(OC)c2)c1,inactive: > 100 µM
9,Cc1c(C)c(S(=O)(=O)N(CCCN)OCCCN)c(C)c2c1OC(C)(C)C2,inactive: 52.8 µM
10,Cc1c(C)n(COCCO)c2ncnc(N)c12,inactive: > 100 µM
11,Cn1nc2ccccc2cc1=O,inactive: > 100 µM
12,COC1=C(OC)C(=O)C(Cc2c(C)nc3sc(C)cn23)=C(C)C1=O,inactive: 36.9 µM
13,Nc1c2ccccc2nc2nccnc12,inactive: > 100 µM
14,O=C1C=CC(=O)c2c1c1c(c3c2C2c4ccccc4C3c3ccccc32)C2c3ccccc3C1c1ccccc12,inactive: 22.1 µM
15,O=C1CSC(c2c[nH]c3ccccc23)N1c1ccc(Cl)cc1 (stereo not given),inactive: > 100 µM
16,c1ccc(C(=NNc2nc3ccccc3[nH]2)c2ccccn2)nc1,active: 0.12 µM
17,CC(C)(C)C1=CC(CCC(=O)Nc2ccccc2[N+](=O)[O-])=NC(S)N1 (stereo not given),inactive: > 100 µM
18,C/C(=C\c1ccccc1)C(=O)NCc1ccc(C(=O)NCCC(C)C)cc1,inactive: > 100 µM
19,Cc1nc2ccc(S(=O)(=O)O)cc2c(=O)n1-c1ccc(C(=O)NN2C(=O)C(Cl)C2c2ccccc2O)cc1 (stereo not given),inactive: > 100 µM
20,CN(C)CC1CCCCCCCCCCCCC(CN(C)C)C1=O (stereo not given),inactive: 15.3 µM
21,Cc1ccc(/N=N/c2c(O)ccc3ccccc23)cc1,inactive: > 100 µM
22,CC1(C)CCCC2(C)C3=C(CCC12)C(=O)OC3 (stereo not given),inactive: > 100 µM
23,CSC1=C(C#N)C(=O)N(c2ccc(C)cc2)C(=O)C1C#N (stereo not given),inactive: > 100 µM
24,O1C2C1C1OC1C1OC1C1OC21 (stereo not given),inactive: > 100 µM

row,Compound,GI50
1,CCCN(CCC)c1c([N+](=O)[O-])cc(C(=O)N(CC)CC)cc1[N+](=O)[O-],inactive: 41.8 µM
2,Brc1ccc2[nH]cc(-c3csc(-c4ccccn4)n3)c2c1,inactive: 15.5 µM
3,COC1(OC)CC2OC1C1N=NN(C(=O)OC(C)(C)C)C21 (stereo not given),inactive: > 100 µM
4,CNC(=O)C(C)C1C(=O)/C(=C(O)/C=C\C(C)=C\C(C)C2OC3(C)OC(C=CC34CO4)C2C)C(=O)N1C1CCC(O)C(C)O1 (stereo not given),inactive: > 100 µM
5,CC(=O)c1ccc(N2C(=O)C3c4[nH]c5ccccc5c4C4CCC(C(C)(C)C)CC4C3C2=O)cc1 (stereo not given),inactive: 24.6 µM
6,Cc1ncc(CSC(=N)N)n1Cc1ccccc1,inactive: > 100 µM
7,CN1CCCCC1CCN1CCCCC1 (stereo not given),inactive: > 100 µM
8,CN1c2ccccc2C(=O)Nc2cnc(Cl)nc21,inactive: > 100 µM
9,O=c1[nH]c(=O)n2n1C1C=CC2CC1,inactive: > 100 µM
10,FC(F)(F)c1ccc(/N=C/C=C(/Nc2ccc(C(F)(F)F)cc2)c2ccc(Cl)cc2)cc1,inactive: 14 µM
11,Cc1ccc2c(c1)C(=O)C1(Cc3ccccc3C1=O)C2 (stereo not given),inactive: > 100 µM
12,Cn1nc2ccc(Nc3cc(=O)[nH]c4ccc5nn(C)nc5c34)cc2n1,inactive: > 100 µM
13,C=C1c2nc3ccccc3n2C=C(c2ccc(OC)cc2)N1c1ccc(OCCN2CCOCC2)cc1,inactive: > 90.4 µM
14,NC(=O)C(NC=O)c1ccccc1 (stereo not given),inactive: > 100 µM
15,C#CCOC(=O)[C@@H](C)c1ccc2cc(OC)ccc2c1,inactive: > 100 µM
16,CCCCCCNC(=S)N/N=C(\C)c1ccccn1,active: < 0.0274 µM
17,Clc1ccc(-c2nc3cc(Cl)ccc3[nH]2)cc1,inactive: 43.6 µM
18,O=C(NI1OC(=O)c2ccccc21)c1ccc(Cl)cc1,inactive: > 100 µM
19,O=C1c2ccc3c4ccccc4n(-c4ccccc4)c3c2C(=O)N1c1ccc(Cl)cc1,inactive: > 100 µM
20,CCN(CC)CC(C(=O)Nc1c(C)cccc1C)/C(C)=N/NC(N)=S (stereo not given),inactive: > 100 µM
21,CC(=O)Nc1ccccc1-c1nc2ccccc2nc1-c1ccccc1,inactive: > 100 µM
22,CCOC(CN=C=S)OCC,inactive: > 10 µM
23,CN1CCN(/C(N)=C(\C#N)C(=O)Nc2ccc(Cl)cc2)CC1,inactive: > 100 µM
24,COc1ccc(C)cc1-c1ccc(-c2cc(C)ccc2OC)o1,inactive: > 100 µM

row,Compound,GI50
1,Cc1c(C)c(C)c(-n2c(=O)n(C)c(=O)n2-n2c(=O)n(C)c(=O)n2-c2c(C)c(C)c(C)c(C)c2C)c(C)c1C,inactive: > 100 µM
2,CCCC(=O)OC1CC(n2cc(F)c(=O)[nH]c2=O)OC1CO (stereo not given),inactive: 3.55 µM
3,N#Cc1c2c(c(N=[N+]=[N-])n3c1nc1ccccc13)CCCC2,inactive: 12.8 µM
4,Cc1[nH]c2ccccc2c1/C=N/c1ccc(Oc2ccccc2)cc1,inactive: 15.6 µM
5,CC(NC(=O)/C(=C/c1ccccc1)NC(=O)c1ccccc1)C(=O)O (stereo not given),inactive: 51.2 µM
6,CCSC1=CC(Cc2ccc(OC)cc2)N(C(=O)OC)C1 (stereo not given),inactive: > 100 µM
7,Nc1cccc(CCN2CCN(CCCc3ccccc3)CC2)c1,inactive: 53.2 µM
8,COc1cc(CSc2ccc(O)cc2)cc(O)c1O,inactive: 39.7 µM
9,O=[N+]([O-])c1ccc2nc(/C(=N/Nc3ccccc3)C(O)c3ccc(C(O)/C(=N\Nc4ccccc4)c4nc5ccc([N+](=O)[O-])cc5nc4O)cc3)cnc2c1 (stereo not given),inactive: 76.2 µM
10,COc1cc(C)c(C)c(OC(=O)c2c(C)c(C)c(OC)c(C)c2OC)c1C,inactive: 54.2 µM
11,NCCCCC(NC(=O)C(N)Cc1ccc(O)cn1)C(=O)O (stereo not given),inactive: > 100 µM
12,CC1=C2C3OC(=O)C(C)C3CCC2(C)C=C/C1=N\c1ccccc1 (stereo not given),inactive: > 100 µM
13,O=C(Nc1nncs1)NS(=O)(=O)n1cnc2ccccc21,inactive: > 100 µM
14,COc1cc([N+](=O)[O-])c(S(=O)(=O)O)cc1NS(=O)(=O)c1ccc(C)cc1,inactive: > 100 µM
15,O=S(=O)(O)c1ccc2cc(/N=N/c3c(O)ccc4ccccc34)ccc2c1,inactive: > 100 µM
16,O=C(NCCCCNCCCNC(=O)OCc1ccccc1)OCc1ccccc1,inactive: 60.5 µM
17,C/C=C(/C)C(=O)O[C@H](C[C@@H](C)[C@H]1CC(c2ccoc2)OC1=O)[C@@]1(C)C(=O)CCC2O[C@]21C (stereo not given in full),inactive: > 100 µM
18,CC1(C)OC(C[C@]2(C#N)C[C@H](CCl)OC(C)(C)O2)C[C@@H](C[C@]2(C#N)C[C@H](CCl)OC(C)(C)O2)O1 (stereo not given in full),inactive: > 100 µM
19,C/C=C1/CN2CCC34C5=CC(=O)C(c6cc7c(cc6OC)N(C)C6=C(C(=O)OC)CC8(CC)CCCN9CCC67C98)=CC5=NC23CCC1C4C(=O)OC (stereo not given),inactive: 17.3 µM
20,CC1=CC2(C)C=C[C@@H]1C(=O)[C@@]1(C)CC[C@@](O)(C(C)C)[C@H]1CC2,inactive: 20.9 µM
21,Cc1ncc([N+](=O)[O-])n1CC(O)Cn1cnc([N+](=O)[O-])n1 (stereo not given),inactive: > 100 µM
22,Nc1ncnc2c1ccn2COC(CO)CO,inactive: > 100 µM
23,Nc1nc(Cl)cc(Nc2ccc3c(c2)CCC3)n1,inactive: 78.5 µM
